Measurements as given in PubChem BioAssay AID588855 (National Center for Advancing Translational Sciences (NCATS), 2011).
Out of some 410,000 compounds screened, about 5,000 (1.2%) were called active. This list was built around the results that the source calls inconclusive (neither active nor inactive); the mix of calls is not that of the screen. Calls come from the whole dose curve; as a rule, active = well fitted inhibition curve with a large enough effect; inconclusive = small, poorly fitted or top-dose-only effect; inactive = no such curve, though single readings can be large or run the other way. A potency beside an inconclusive call is a rough fit, not a confirmed value.

Experiment: qHTS for Inhibitors of TGF-b; note: nearly all actives have a fitted effect of over 65% in size
Conditions: HepG2 CAGA-GFP TGF-b/SMAD3 reporter, GFP fluorescence, 18 h, TGF-beta stimulated, 500 pg/mL final; series mostly up to 46.1 µM; activity, negative = inhibition: at the top concentration
Method in brief: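 HEPG2 CAGA-GFP, 1000 cells/well; 2 h settle, 37 C; cpd via pin tool; TGF-b 500 pg/mL final; 18 h, 37 C; GFP imaging ex488/em500-530; %Activity normalised to -TGF-b and +DMSO controls; CRC fit, curve class.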
% is set by controls: 0 for no effect and ±100 for the full control effect; potency is the fitted concentration of half-maximal effect; tags give direction and shape of the fitted curve.

Compound	Potency	activity, negative = inhibition
NC(N)=N/N=C/c1ccc(Br)cc1	inconclusive: 25.1 µM [inhibitor, single point]	–
Cc1ccc(C23CC4CC(CC(CC(=O)NC(C)(C)CO)(C4)C2)C3)cc1	inconclusive: 15.8 µM [inhibitor, single point]	–
COc1cc(NC(=O)CSc2nc3cc(C)ccc3cc2C)c(C(=O)O)cc1OC	inconclusive: 6.31 µM [inhibitor, single point]	–
CCn1c2ccccc2c2cc(/C=N/n3c(-c4cc(C)[nH]n4)n[nH]c3=S)ccc21	inconclusive: 17.8 µM [inhibitor, single point]	–
COC(=O)c1ccc(NC(=O)CC2C(=O)N(c3ccc(Cl)cc3)C(=O)N2Cc2ccco2)cc1 (stereo not given)	inconclusive: 0.562 µM [inhibitor, full curve, poor fit]	–
O=C1c2cccc(OCc3ccc(F)cc3)c2CCN1Cc1ccccc1	active: 17.8 µM	–
C(=C\c1ccnc2ccccc12)/c1ccc(N2CCNCC2)cc1	inconclusive: 35.5 µM [inhibitor, partial curve, poor fit]	–
COC(=O)N[C@@H]1C[C@H]2[C@@H]3CC[C@H]4C[C@@H](OC)CC[C@]4(C)[C@H]3CC[C@]12C	inconclusive: 25.1 µM [inhibitor, single point]	–
Cn1c(=O)c2cc(NC(=S)NC3CCCCC3)ccc2n1C/C=C/c1ccccc1	inconclusive: 14.1 µM [inhibitor, single point]	–
COc1ccc(CNC(=O)C2CCN(S(=O)(=O)N3CCOCC3)CC2)cc1	inconclusive: 12.6 µM [inhibitor, partial curve]	–
O=C(CSc1nc2ccccc2c(=O)n1-c1ccc(F)cc1)Nc1ccc(Cl)c(S(=O)(=O)N2CCOCC2)c1	inconclusive: 6.31 µM [inhibitor, partial curve]	–
CC(C)C(NC(=O)c1cccc(S(=O)(=O)N2CCOCC2)c1)C(=O)NCc1ccc(Cl)cc1 (stereo not given)	inconclusive: 7.94 µM [inhibitor, partial curve, poor fit]	–
CCc1ccc2c(c1)C1(NN=C(c3ccc(C)cc3)S1)C(=O)N2 (stereo not given)	active: 15.8 µM	–
CCOc1ccc(NC(=O)c2ccccc2NS(=O)(=O)c2ccc(F)cc2)c([N+](=O)[O-])c1	inconclusive: 15.8 µM [inhibitor, partial curve, poor fit]	–
COc1ccc(Nc2nc(N3CCCC3)nc(N3CCCC3)n2)c(OC)c1	inconclusive: 3.55 µM [inhibitor, single point]	–
FC(F)(F)c1cc(Nc2ccccc2)nc(-c2ccccn2)n1	–	inactive: -20.1%
CN1/C(=C\C(=O)COC(=O)c2ccc(O)cc2)C(C)(C)c2ccccc21	inconclusive: 15.8 µM [inhibitor, single point]	–
N#C/C(=C(/O)COc1ccc(Cl)cc1)c1nc2ccccc2s1	–	inactive: 3.65%
CC(C)NC(=O)CCCN1C(=O)CCn2nc(-c3cccn3C)cc21	–	inactive: -9.64%
COC(=O)c1cc2c(cc1NC(=O)c1cnn(-c3ccc(C)cc3)c1-n1cccc1)OCO2	inconclusive: 0.631 µM [inhibitor, full curve, poor fit]	–
O=C(O)c1ccccc1NC(=S)NC(=O)c1sc2ccccc2c1Cl	–	inactive: -9.56%
COc1ccc(-c2nn(-c3ccccc3)cc2/C=N/NC(=O)c2cccc(S(=O)(=O)Nc3ccccc3Cl)c2)cc1	–	inactive: -19.2%

Compound	Potency	activity, negative = inhibition
CCOc1cc(C)nc(N2CCCC(C(=O)NCc3ccccc3F)C2)n1 (stereo not given)	inconclusive: 7.08 µM [inhibitor, partial curve]	–
COc1ccc(Cc2c(C3CCCCC3)nc3c(C)cc(Br)cn23)c(C)c1	inconclusive: 20 µM [inhibitor, partial curve]	–
CC(Sc1nnc(CN2CCCC2)n1Cc1ccccc1)C(=O)Nc1ccc(F)cc1Cl (stereo not given)	inconclusive: 0.631 µM [inhibitor, full curve]	–
CC1=C(C(=O)Nc2cccnc2)C(c2ccc(Cl)cc2)n2nc(-c3ccccc3)nc2N1 (stereo not given)	inconclusive: 35.5 µM [inhibitor, single point]	–
Cn1c(=O)c2c(nc3n(-c4ccc(O)cc4)c(-c4ccc(Br)cc4)cn23)n(C)c1=O	–	inactive: 9.7%
CC(C)COc1ccc(CNC(=S)Nc2ccccc2)cc1Cl	active: 11.2 µM	–
COc1ccc2c(C)cc(N3CCN(c4ccc(F)cc4)CC3)nc2c1	inconclusive: 10 µM [inhibitor, partial curve]	–
Cn1ccnc1SCCC#N	inconclusive: 3.98 µM [inhibitor, single point]	–
Cc1ccc(S(=O)(=O)Nc2ccc3c(c2)C(=O)N([C@H](C)CO)C[C@H](C)[C@@H](CN(C)C(=O)Nc2ccc4c(c2)OCO4)O3)cc1	inconclusive: 20 µM [inhibitor, single point]	–
O=c1cc(CCl)[nH]c2nc3ccccc3n12	inconclusive: 12.6 µM [inhibitor, single point]	–
CCOC(=O)CN1C(=O)N2C[C@H]3CON(C)[C@H]3C[C@H]2c2ccccc21	–	inactive: -12.5%
O=C(CN1C(=O)NC2(CCCCCCC2)C1=O)Nc1ccc(OC(F)F)cc1	inconclusive: 25.1 µM [inhibitor, single point]	–
Cc1cccc(N(Cc2ccccc2)C(=O)c2cc(S(=O)(=O)N3CCOCC3)ccc2Cl)c1	inconclusive: 15.8 µM [inhibitor, partial curve, poor fit]	–
CN(C)c1ccc(CNC(=O)c2cc3cc(S(=O)(=O)N4CCCCC4)ccc3n2C)cc1	inconclusive: 0.708 µM [inhibitor, full curve]	–
CC(C)OCCCN1CN(S(=O)(=O)c2cccc(Cl)c2)c2nc3ccccc3nc21	–	inactive: -23.1%
COc1cc(NC2CCCCC2O)c2nc(-c3ccc(Cl)cc3)ccc2c1 (stereo not given)	inconclusive: 35.5 µM [inhibitor, single point]	–
CC(C)Nc1nc(NCCOc2ccccc2Cl)c2sc(-c3ccccc3)cc2n1	inconclusive: 35.5 µM [inhibitor, single point]	–
Cc1ccc(C(C)C)c2c1C(c1ccc3c(c1)OCO3)CC(=O)O2 (stereo not given)	inconclusive: 35.5 µM [inhibitor, partial curve, poor fit]	–
[N-]=[N+]=N[C@@H](CCN1CC[C@H](NC(=O)OCc2ccccc2)CCC1=O)c1ccccc1	inconclusive: 35.5 µM [inhibitor, single point]	–
Cc1c(N=Cc2c(O)n(Cc3ccco3)c(=O)c3ccccc23)c(=O)n(-c2ccccc2)n1C	–	inactive: 1.97%
O=C(CCc1ccccc1)NC(=S)Nc1ccccc1[N+](=O)[O-]	–	inactive: -17.2%
CCOC(=O)C1CCN(Cc2nc3ccccc3c(=O)n2-c2ccc(F)cc2)CC1	–	inactive: -0.828%

Compound	Potency	activity, negative = inhibition
Cc1cccc(C2c3[nH]c4ccccc4c3CCN2Cc2cccn2-c2ncccn2)c1 (stereo not given)	inconclusive: 17.8 µM [inhibitor, single point]	–
Cc1c(C(=O)N2CC3(CC(c4cccc(NC(=O)CC(c5ccccc5)c5ccccc5)c4)=NO3)C[C@@H]2C(N)=O)cc([N+](=O)[O-])cc1[N+](=O)[O-] (stereo not given in full)	inconclusive: 28.2 µM [inhibitor, single point]	–
COc1ccc(NS(=O)(=O)c2ccc(NC(=O)Cc3cccs3)cc2)cc1	inconclusive: 3.55 µM [inhibitor, partial curve, poor fit]	–
Cc1ccc(C(C)C)c(OCCCN2C(=O)NC(C)(C)C2=O)c1	inconclusive: 15.8 µM [inhibitor, single point]	–
Cc1oc(C)c2c(=O)cc(-c3ccc4c(c3)OCO4)cc(OC(=O)c3ccccc3Br)c12	–	inactive: 70.9%
COc1ccc(-c2[nH]c(-c3cc(OC)c4c(c3)OCO4)nc2-c2ccccc2)cc1	inconclusive: 11.2 µM [inhibitor, partial curve, poor fit]	–
Clc1ccc(-c2c[n+](Cc3cccc(Cl)c3)c3n2CCC3)cc1	–	inactive: -28.6%
CCOc1cccc(C2C(C(=O)c3ccc(C)o3)=C(O)C(=O)N2CCCn2ccnc2)c1 (stereo not given)	–	inactive: 12.2%
Nc1nc(NCCCN2CCOCC2)nc(Nc2cccc(Cl)c2)c1[N+](=O)[O-]	inconclusive: 15.8 µM [inhibitor, single point]	–
CCCCc1ccc(NC(=O)COC(=O)c2ccc3ncsc3c2)cc1	–	inactive: 1.52%
CC1Nc2ncnc(N3CCOCC3)c2N(Cc2ccc(Cl)cc2)C1=O (stereo not given)	inconclusive: 17.8 µM [inhibitor, single point]	–
O=C(N/N=C/c1cccc(O)c1)N/N=C/c1cccc(O)c1	inconclusive: 35.5 µM [inhibitor, single point]	–
Cc1cccc(C2CC(c3ccccc3)=NN2c2ccc(S(N)(=O)=O)cc2)c1 (stereo not given)	inconclusive: 11.2 µM [inhibitor, partial curve, poor fit]	–
Oc1ccc(Nc2ccnc3cc(Cl)ccc23)cc1	inconclusive: 1.58 µM [inhibitor, full curve, poor fit]	–
CC(CNC(=O)c1ccc2c(c1)OCO2)c1ccc([N+](=O)[O-])cc1 (stereo not given)	–	inactive: 1.41%
CCOC(=O)c1cc(C)sc1NC(=O)CSC1=NCCS1	–	inactive: -3.26%
COc1ccc(NC(=O)c2nnn(Cc3nc(-c4cc(Br)ccc4OC)oc3C)c2C)cc1	inconclusive: 0.631 µM [inhibitor, partial curve, poor fit]	–
CC(=O)N(O)c1ccc(/C=C2\C=Cc3ccccc32)cc1	–	inactive: 0.811%
O=C(N/N=C/c1cc2c(cc1Br)OCO2)c1cc2ccccc2o1	–	inactive: 4.81%
COc1ccc(Nc2cc(C(=O)NC3CCCC3)c3ccccc3n2)c(OC)c1	inactive	–
Cc1ccc(C(=O)Nc2c(C#N)c(C)c(C)n2Cc2ccccc2)cc1	inconclusive: 35.5 µM [inhibitor, single point]	–
